Earlier results on one compound are cited in article PMC8435859 (Frontiers in Cellular and Infection Microbiology, 2021).

The structures appear in SMILES notation. In brackets after ≈: the same amount, converted by molar mass.

Series [1] concerns EV71. The conditions noted are these: vendor library annotation, ref Li SW, et al. Eur J Pharmacol. 2014; cited from earlier work.
The test system of series [2] is JEV. Particulars: vendor library annotation, ref Li SW, et al. Eur J Pharmacol. 2014; cited from earlier work.

As for `O=C1c2cccc(O)c2C(=O)c2c(O)cc(CO)cc21` [Aloe-emodin], the IC50 in series [1] was 0.33 mg/L (≈ 1.22 µM); in series [2], 1 mg/L (≈ 3.7 µM).

Usually IC50 stands for the concentration at which inhibition is half-maximal.
